# Measured values from PubChem BioAssay AID1345083 (National Center for Advancing Translational Sciences (NCATS), 2018).
# Among all 94,000 compounds or so, about 6,200 (6.6%) were called active. The shares of active, inactive and inconclusive entries below differ from those in the screen. Calls follow the shape of the dose curve; as a rule, active = well fitted inhibition curve with a large enough effect; inconclusive = small, poorly fitted or top-dose-only effect; inactive = flat fitted curve, though single readings scatter. Where the call is inconclusive, the potency comes from a doubtful curve fit.
# Experiment: Cytotoxic Profiling in HEK 293 Cell Line of Diverse Libraries Using Quantitative High-Throughput Screening; also: nearly all actives have a fitted effect of over 60% in size
# Conditions: HEK 293 viability, ATP luminescence (CellTiter-Glo), 48-72 h; activity change, negative = cytotoxicity: at 115 µM (top of the series) unless noted; series mostly up to 115 µM
# In short: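 Read-out: CellTiter-Glo ATP luminescence. Cells: HEK 293, 250 cells/well. Exposure: 48 or 72 hr, 37 degree Celsius.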
# % is scaled to controls: 0 for no effect and ±100 for the full control effect; potency is read from the fitted curve at half-maximal effect; tags tell the direction and shape of the fitted curve.
SMILES,Potency,"activity change, negative = cytotoxicity",outcome
Cc1ccc(S(=O)(=O)N2CCC(CCC(=O)NCCCc3ccccc3)CC2)cc1,"inconclusive: 50.1 µM [inhibitor, partial curve, poor fit]",–,–
CNC(=O)c1cc(C2CC2)nc2c1c(C1CCN(C(=O)c3ccncc3)C1)nn2C (stereo unspecified),–,inactive: 0.3%,–
Cc1ccc(NC(=O)c2cc(C(C)(C)C)nc3c2cnn3C)cc1,active: 79.4 µM,–,–
Cc1cnc(C2CC2)n1CC1CCN(C(=O)Cc2ccccc2)CC1,–,inactive: -6.17%,–
CC(C)(C)c1nc(C(=O)NCc2ccc(F)cc2)n2ccccc12,"inconclusive: 89.1 µM [inhibitor, partial curve, poor fit]",–,–
O=C(NC1CCCCCC1)c1cc2n(n1)CC(c1ccc(Cl)cc1)OC2 (stereo unspecified),"inconclusive: 39.8 µM [inhibitor, partial curve, poor fit]",–,–
COc1ccc(C(=O)N2CCN(C(=O)c3nc4cccnc4n(CCc4ccccc4)c3=O)CC2)cc1,"inconclusive: 89.1 µM [inhibitor, single point]",–,–
Cn1cnc(C(=O)N2CCC(Cc3ccc(C(N)=O)cc3)CC2)c1,–,inactive: -1.51%,–
Clc1ccccc1C1(c2ccnc(-c3ccccc3)n2)CCNCC1,"inconclusive: 20 µM [inhibitor, full curve, poor fit]",–,–
O=C1CC(c2noc(COc3ccccc3)n2)CN1C1CCCCC1 (stereo unspecified),"inconclusive: 35.5 µM [inhibitor, full curve]",–,–
COc1ccc(-c2[nH]nc3ncc(-c4ccccc4O)nc23)cc1F,"inconclusive: 39.8 µM [inhibitor, partial curve, poor fit]",–,–
Cc1ccccc1N1CCN(C(=O)c2cc3c(s2)CCN(C(=O)c2ccccc2)C3)CC1,–,inactive: -7.34%,–
O=C1NC2(CCN(C(=O)c3ccc4c(c3)OCO4)C2)OCc2ccccc21 (stereo unspecified),"inconclusive: 89.1 µM [inhibitor, single point]",–,–
Cc1ccc(C(=O)N2CCCC3(CC(c4cccc(C(F)(F)F)c4)=NO3)C2)cc1 (stereo unspecified),"inconclusive: 35.5 µM [inhibitor, partial curve, poor fit]",–,–
Cc1oc(C(O)c2ccccc2)nc1C(=O)Nc1ccccc1 (stereo unspecified),"inconclusive: 100 µM [inhibitor, partial curve, poor fit]",–,–
COc1ccc(CNC(=O)c2noc(-c3ccc(F)cc3)n2)cc1,"inconclusive: 89.1 µM [inhibitor, single point]",–,–
COc1ccc(CN(C(=O)c2ccco2)c2ccc(CC(=O)NCc3ccccc3)cc2)cc1,"inconclusive: 56.2 µM [inhibitor, partial curve, poor fit]",–,–
OCC1(CN2CCCC2)CCN(Cc2ccc(OC(F)(F)F)cc2)CC1,"inconclusive: 50.1 µM [inhibitor, partial curve, poor fit]",–,–
O=c1cc(-c2ccncc2)oc2c(-c3cccc(O)c3)nccc12,"inconclusive: 126 µM [inhibitor, single point]",–,–
COc1cccc(-c2ccc(C(=O)NCCNC(=O)Nc3ccc(Cl)cc3)cc2)c1,"inconclusive: 89.1 µM [inhibitor, single point]",–,–
O=[S+]1([O-])c2ccccc2C(OCc2ccccc2)CN1c1c(Cl)cccc1Cl (stereo unspecified),"inconclusive: 11.2 µM [inhibitor, full curve, poor fit]",–,–
O=C(NC[C@H]1O[C@@H]2C[C@@H](CC(=O)N3CCOCC3)O[C@@H]2[C@@H]1O)NC1CCCCC1,–,–,inactive [at 172 µM]

SMILES,Potency,"activity change, negative = cytotoxicity",outcome
O=C(C1CC(=O)N(C2CCCCC2)C1)N1CCC2(CC1)NCCc1c2[nH]c2ccccc12 (stereo unspecified),"inconclusive: 56.2 µM [inhibitor, partial curve, poor fit]",–,–
CCNC(=O)N1CCOc2ccc(CCC(=O)NCCc3ccccc3)cc2C1,–,inactive: -10.9%,–
CN(C)CC1(COc2cccnc2)C[C@@H](O)[C@@H](O)C1 (stereo partly specified),–,inactive: -14% [at 172 µM],–
COc1ccc(-c2onc(C)c2C(=O)NCc2ccc3c(c2)OCO3)cc1,"inconclusive: 56.2 µM [inhibitor, partial curve, poor fit]",–,–
Cc1ccccc1CN1CCC2(CC1)Cc1ccccc1CNC2=O,"inconclusive: 50.1 µM [inhibitor, partial curve, poor fit]",–,–
CN1CCN(C(=O)[C@@H]2CCC[C@@H](NCc3cccc4c3OCO4)CN(C)C(=O)C2)CC1,–,–,inactive [at 172 µM]
O=C1CN(Cc2ccc(-c3cc(F)cc(F)c3)cc2)CCN1c1cc(Cl)ncn1,"inconclusive: 89.1 µM [inhibitor, partial curve, poor fit]",–,–
O=[S+]([O-])(Nc1ccccc1)c1ccc2c(c1)OCCN(Cc1ccncc1)C2,"inconclusive: 50.1 µM [inhibitor, partial curve, poor fit]",–,–
Cn1cc(-c2cccc(CCOc3cnc4c(ccn4CC(=O)O)c3)c2)cn1,–,inactive: -0.536% [at 172 µM],–
CS(=O)(=O)N1CCC(C2CCN(CC3CC3)C2)CC1 (stereo unspecified),–,inactive: -18.6%,–
CC(C)c1nc(NC(=O)Cn2nc3c(cc2=O)CCCC3)n[nH]1,–,–,inactive
COC(=O)[C@H](NC(=O)C1=C[C@@H](NC(=O)CC2(CC(=O)O)CCCC2)[C@@H](O)[C@H](O)C1)C(C)C,–,inactive: 0.719%,–
Cn1cc(-c2cn(C)c(=O)n3cc(COc4ccc(Cl)cc4)nc23)cn1,active: 70.8 µM,–,–
Cc1c(C(=O)N2C[C@@H](C(=O)O)C[C@H](C(=O)NC3CC3)C2)sc2ccccc12,–,inactive: -5.47%,–
CC(=O)N1CCCC(C(=O)N2CCC(Cc3noc(C)n3)CC2)C1 (stereo unspecified),–,inactive: 3.13%,–
COc1ccccc1C(=O)NC1CCN(c2cnn(CC3CC3)c(=O)c2)CC1,"inconclusive: 50.1 µM [inhibitor, partial curve, poor fit]",–,–
Cc1noc(-c2cccc(OC3CN(C(=O)c4cccc5[nH]ccc45)C3)c2)n1,"inconclusive: 44.7 µM [inhibitor, partial curve, poor fit]",–,–
CCNC(=O)O[C@@H]1CO[C@H]2[C@@H]1OC[C@@H]2NC(=S)Nc1cccc2ccccc12,active: 70.8 µM,–,–
COc1ccccc1CC(=O)N1CCC2(CC1)N=C(c1ccc(C)cc1)NO2,"inconclusive: 39.8 µM [inhibitor, full curve, poor fit]",–,–
O=C(CCCc1cn[nH]c1)N1CCCC(CCc2c(F)cccc2F)C1 (stereo unspecified),active: 50.1 µM,–,–
CCC1Oc2ccc(NC(=O)c3ccccc3)cc2CN(Cc2ccc(OC)cc2)C1=O (stereo unspecified),"inconclusive: 70.8 µM [inhibitor, partial curve, poor fit]",–,–
COc1ccc(C(=O)N2CCC3(CC2)N=C(c2cccc(Br)c2)NO3)c(OC)c1,"inconclusive: 50.1 µM [inhibitor, partial curve, poor fit]",–,–

SMILES,Potency,"activity change, negative = cytotoxicity",outcome
Cc1noc2c(Nc3ccncc3)cc(-c3ccc(F)cc3)nc12,"inconclusive: 112 µM [inhibitor, partial curve, poor fit]",–,–
O=C(OCc1ccccc1)N1CCOCC12CCN(Cc1ccccc1F)CC2,"inconclusive: 70.8 µM [inhibitor, partial curve, poor fit]",–,–
Cc1nnc2ccc(N3CCN(C(=O)Nc4ccc(Cl)cc4)CC3)nn12,"inconclusive: 50.1 µM [inhibitor, partial curve, poor fit]",–,–
CN1CC2(CCN(c3nc(-c4ccccc4)no3)CC2)CC(c2ccccc2)C1=O (stereo unspecified),"inconclusive: 50.1 µM [inhibitor, partial curve, poor fit]",–,–
Cc1cccc(S(=O)(=O)N2CCC3(C2)C(=O)N(C)c2ccccc23)c1 (stereo unspecified),"inconclusive: 39.8 µM [inhibitor, partial curve]",–,–
COc1ccccc1-c1nnc([C@H]2CCN(Cc3ccccn3)C2)o1,"inconclusive: 126 µM [inhibitor, partial curve, poor fit]",–,–
O=C(COc1ccc(F)cc1)N1CCCCC1c1nc(CCOCC2CCCC2)no1 (stereo unspecified),"inconclusive: 50.1 µM [inhibitor, partial curve, poor fit]",–,–
C[S+](=O)([O-])N1CC2(CCCN(Cc3ccc(Cl)cc3)C2)Cc2ccccc21 (stereo unspecified),"inconclusive: 56.2 µM [inhibitor, partial curve, poor fit]",–,–
Cn1c(Cn2cnc3c2C(C)(C)OC3(C)C)nnc1C1CC(N)C1 (stereo unspecified),–,–,inactive
CSc1ccc(-c2cccc(C(=O)NCCNC(=O)C3CCCC3)c2)cc1,–,inactive: -29.2%,–
COc1ccc(NC(=O)NCC2CCC(=O)N(Cc3ccccc3)CC2)cc1F (stereo unspecified),–,inactive: -15.2%,–
O=C(NCc1ccncc1)c1csc(N2CCN(c3ccccc3F)CC2)n1,"inconclusive: 44.7 µM [inhibitor, partial curve]",–,–
COCCNC(=O)c1cc(-c2cccc(C(F)(F)F)c2)c2cccn2n1,active: 31.6 µM,–,–
CCOC(=O)C1CCN(C(=O)c2cn3cc(-c4ccc(C)cc4)sc3n2)CC1,–,inactive: -24.2%,–
C[S+](=O)([O-])NC1CCCN(c2ccnc3ccnn23)C1 (stereo unspecified),–,inactive: 3.08% [at 172 µM],–
Cc1ccc(-c2cc3c(=O)n(CCNC(=O)c4cccnc4)ccn3n2)c(C)c1,"inconclusive: 79.4 µM [inhibitor, partial curve, poor fit]",–,–
CCOCCCNC(=O)CNC(=O)c1ccc(-c2cnc3ccccc3c2)cc1,–,inactive: -3.3%,–
CC(C)(C)C1CCC2(CC1)NC(=O)N(CC(=O)Nc1ccc(F)cc1F)C2=O (stereo unspecified),"inconclusive: 39.8 µM [inhibitor, full curve, poor fit]",–,–
CN1CCN(C(=O)c2cc(-c3ccccc3C(F)(F)F)nc3c2cnn3C)CC1,–,inactive: 2.52%,–
COc1ccc(-c2ccc(C(=O)NC3CC3)cc2)nn1,active: 89.1 µM,–,–
COc1ccc2cc(C3CN(C(=O)c4cccc(CO)n4)CCO3)ccc2c1 (stereo unspecified),"inconclusive: 100 µM [inhibitor, single point]",–,–
O=C(c1ccncc1)N1CCC2(CC1)N=C(c1ccc(Cl)cc1)NO2,"inconclusive: 44.7 µM [inhibitor, partial curve, poor fit]",–,–
